At least one read-out could not be matched to a standard name with certainty. Marks after values point to notes of the source that are not given here.
system: male db/db mice (BKS.Cg-m+/+Lepr db/J); test: Intraperitoneal glucose tolerance test (IPGTT) in db/db mice (Example 122, FIGS. 3 and 5); assay type: in vivo, mouse; conditions: oral dose 1X (relative to 50 mg/kg Compound 39) at -3 hr, vs vehicle (Formula 2)

SMILES	Ave. % Change in Glucose Intolerance at +45 min
CCOC(=O)C1=C(COCCN(C)C)NC2=C(C(=O)CC(C)(C)C2)C1c1cccnc1 (stereo not drawn) [Compound 68, 2-(2-Dimethylamino-ethoxymethyl)-7,7-dimethyl-5-oxo-4-pyridin-3yl-1,4,5,6,7,8,-hexahydro-quinoline-3-carboxylic acid ethyl ester]	−0.5** %
CCOC(=O)C1=C(CCCCN)NC2=C(C(=O)CC(C)(C)C2)C1c1cccnc1 (stereo not drawn) [Compound 69, 2-(4-Amino-butyl)-7,7-dimethyl-5-oxo-4-pyridin-3yl-1,4,5,6,7,8,- hexahydro-quinoline-3-carboxylic acid ethyl ester]	−5.5%
CCOC(=O)C1=C(COCCN)NC2=C(C(=O)CC(C)(C)C2)C1c1ccco1 (stereo not drawn) [Compound 96, 2-(2-Amino-ethoxymethyl)-4-furan-2-yl-7,7-dimethyl-5-oxo-1,4,5,6,7,8-hexahydro-quinoline-3-carboxylic acid ethyl ester]	−52.6** %
CCOC(=O)C1=C(COCCN)NC2=C(C(=O)CC(C)(C)C2)C1c1cccc(O)c1 (stereo not drawn) [Compound 168, 2-(2-Amino-ethoxymethyl)-4-(3-hydroxy-phenyl)-7,7-dimethyl-5-oxo-1,4,5,6,7,8-hexahydro-quinoline-3-carboxylic acid ethyl ester]	−1.3%
CCOC(=O)C1=C(COCCN)NC2=C(C(=O)CC(C)(C)C2)C1c1cccnc1OC (stereo not drawn) [Compound 194, 2-(2-Amino-ethoxymethyl)-7,7-dimethyl-4-(2-methoxypyrid-3-yl)-5-oxo-1,4,5,6,7,8-hexahydro-quinoline-3-carboxylic acid ethyl ester]	+9.8%
CCOC(=O)C1=C(COCCN)NC2=C(C(=O)CC(C)(C)C2)C1c1cccc(Cl)c1 (stereo not drawn) [Compound 195, 2-(2-Amino-ethoxymethyl)-7,7-dimethyl-4-(3-chlorophenyl)-5-oxo-1,4,5,6,7,8-hexahydro-quinoline-3-carboxylic acid ethyl ester]	−3.6%
CCOC(=O)C1=C(COCCN)NC2=C(C(=O)CC(C)(C)C2)C1c1ccc(Cl)cc1Cl (stereo not drawn) [Compound 196, 2-(2-Amino-ethoxymethyl)-7,7-dimethyl-4-(2,4-dichlorophenyl)-5-oxo-1,4,5,6,7,8-hexahydro-quinoline-3-carboxylic acid ethyl ester]	−3.8%
CCOC(=O)C1=C(COCCN)NC2=C(C(=O)CC(C)(C)C2)C1c1cccc(C#N)c1 (stereo not drawn) [Compound 197, 2-(2-Amino-ethoxymethyl)-7,7-dimethyl-4-(3-cyanophenyl)-5-oxo-1,4,5,6,7,8-hexahydro-quinoline-3-carboxylic acid ethyl ester]	−2.6%
CCOC(=O)C1=C(C)NC2=C(C(=O)CC(C)(C)C2)C1c1ccccc1OC (stereo not drawn) [Compound 200, 2,7,7-Trimethyl-4-(2-methoxyphenyl)-5-oxo-1,4,5,6,7,8-hexahydro-quinoline-3-carboxylic acid ethyl ester]	−22.3%
CCOC(=O)C1=C(COCCN)NC2=C(C(=O)CC(C)(C)C2)C1c1cnccc1OC (stereo not drawn) [Compound 201, 2-(2-Amino-ethoxymethyl)-7,7-dimethyl-4-(4-methoxypyrid-3-yl)-5-oxo-1,4,5,6,7,8-hexahydro-quinoline-3-carboxylic acid ethyl ester]	−17.5%
CCOC(=O)C1=C(C)NC2=C(C(=O)CC(C)(C)C2)C1c1cccnc1 (stereo not drawn) [Compound 202, 2,7,7-Trimethyl-4-(pyrid-3-yl)-5-oxo-1,4,5,6,7,8-hexahydro-quinoline-3-carboxylic acid ethyl ester]	−31.2%
CC1=C(C#N)C(c2cccnc2)C2=C(CC(C)(C)CC2=O)N1 (stereo not drawn) [Compound 203, 2,7,7-Trimethyl-4-(pyrid-3-yl)-5-oxo-1,4,5,6,7,8-hexahydro-quinoline-3-carbonitrile]	−27.9%
